PubChem BioAssay AID1508624 (National Center for Advancing Translational Sciences (NCATS), 2021)
About 120 (0.25%) of roughly 48,000 compounds were called active. Roughly 4% stayed inconclusive and do not appear here. Calls come from the whole dose curve; as a rule, active = well fitted activation curve with a large enough effect; inconclusive = small, poorly fitted or top-dose-only effect, or another doubt; inactive = no such curve, though single readings can be large or run the other way. This is one part of the list.

Assay: Primary qHTS for Identification of Small Molecule Activators of Huntingtin-Antisense Promoter Activity; note: nearly all actives have a fitted effect of over 55% in size
Conditions: HEK293 HTT-AS promoter firefly luciferase reporter (activity 0% = vehicle and -100% = no light), 24 h; series mostly up to 57.5 µM; activity change, positive = activation: at the top concentration
How it was run: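 HEK293 Fluc reporter, 2,500 cells/well, 24 h pre-culture; cpds up to 57.5 uM final, 24 h 37 degrees C; Dual-Glo, 10 min RT; normalized vehicle = 0%, zero RLU = -100%.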
Potency is the fitted concentration of half-maximal effect.

For `COc1cccc(NC(=O)C(=O)NCC(c2ccc3c(c2)OCO3)N2CCOCC2)c1` (centres undefined), which Potency is on record?
Its Potency is active: 4.47 µM.

With `O=C(Cn1c(=O)n(-c2ccc(Cl)cc2)c(=O)c2sc3ccccc3c21)NC1CCCCC1` as the molecule, how does the “activity change, positive = activation” value read?
Its value is inactive: -4.47%.

Which “activity change, positive = activation” value does the source give for `COc1ccc(-c2cc(C(F)(F)F)nc(NCc3ccccc3)n2)cc1` here?
Its value is inactive: -24.1%.

Which “activity change, positive = activation” value does the source give for `COc1cc(OC)c(NC(=O)CCn2cccn2)cc1Cl` here?
Its value is inactive: -4.02%.

For `CN(Cc1ccccc1)C(C(=O)NC1CCCCC1)c1ccc(Cl)cc1` (centres undefined), which “activity change, positive = activation” value is on record?
Its value is inactive: 8.73%.

With `Fc1ccc(C(Nc2ccc(Cl)c(C(F)(F)F)c2)c2nnc(-c3ccccc3)o2)cc1` (centres undefined) as the molecule, how does the “activity change, positive = activation” value read?
Its value is inactive: -39%.

With `CC(C=CC=C(C)C=CC1=C(C)CCCC1(C)C)=CC=CC=C(C)C=CC=C(C)C=CC1=C(C)CCCC1(C)C` as the molecule, how does the “activity change, positive = activation” value read?
The value was inactive: -7.92%.

With `Cc1cn2c(=O)cc(COC(=O)c3cccc(NC(=O)COc4ccc(Cl)cc4)c3)nc2s1` as the molecule, how does the “activity change, positive = activation” value read?
The value was inactive: -6.9%.

With `Cc1ccc(CCNC(=O)c2cc3sccc3n2Cc2ccc(F)cc2)cc1` as the molecule, how does the “activity change, positive = activation” value read?
The value was inactive: -16.2%.

Which “activity change, positive = activation” value does the source give for `COC(=O)c1c(NC(=O)COc2ccccc2Cl)sc2c1CCC(C(C)(C)C)C2` (centres undefined) here?
The value was inactive: -4.52%.

For `COC(=O)c1ccc(Cl)cc1NC(=O)N1CCC(CN2CCCC2)CC1`, which “activity change, positive = activation” value is on record?
Its value is inactive: -10.2%.

With `CC(C)(O)CCc1ccc(OCc2cc(-c3cccc(OC(F)F)c3)c3ncccc3c2)cc1` as the molecule, how does the “activity change, positive = activation” value read?
The value was inactive: -8.62%.

With `Cc1ccc(C(=O)c2cn(Cc3ccccc3F)c3cc4c(cc3c2=O)OCO4)cc1` as the molecule, how does the “activity change, positive = activation” value read?
The value was inactive: 1.74%.

For `N#C/C(=C\c1ccc(Br)cc1)c1nc(-c2cc3cc(Br)ccc3oc2=O)cs1`, which “activity change, positive = activation” value is on record?
The value was inactive: -4.9%.

For `COc1cc(/C=C(\C#N)c2nc3ccc(C)cc3[nH]2)ccc1OC(C)C`, which “activity change, positive = activation” value is on record?
The value was inactive: 15.8%.

Which “activity change, positive = activation” value does the source give for `CC1(C)O[C@@H]2C[C@H]3[C@@H]4CCC5=CC(=O)C=C[C@]5(C)[C@@H]4[C@@H](O)C[C@]3(C)[C@]2(C(=O)CO)O1` here?
Its value is inactive: -10.4%.

With `CCc1ccc(S(=O)(=O)c2c[nH]c3cc(OC)c(OC)cc3c2=O)cc1` as the molecule, how does the “activity change, positive = activation” value read?
Its value is inactive: 3.23%.

For `COc1ccc2cc3cc(C(=O)NCCc4ccccc4)sc3nc2c1Cl`, which “activity change, positive = activation” value is on record?
Its value is inactive: 6.27%.

Which “activity change, positive = activation” value does the source give for `CCc1ccccc1N(C)S(=O)(=O)c1ccc2[nH]cc(C(=O)NCCOC)c(=O)c2c1` here?
The value was inactive: -22.5%.

For `CC(C)CCNC(=O)CN1C(=O)c2cccnc2Oc2ccccc21`, which “activity change, positive = activation” value is on record?
Its value is inactive: -10%.

For `N#Cc1ccccc1S(=O)(=O)N1CCCC(c2nc3c(nnn3Cc3cccc(Cl)c3)c(=O)[nH]2)C1` (centres undefined), which “activity change, positive = activation” value is on record?
Its value is inactive: -35.3%.

Which “activity change, positive = activation” value does the source give for `Cc1csc2nc(CCNS(=O)(=O)c3ccccc3)cn12` here?
The value was inactive: -7.31%.

For `O=C(NCc1ccco1)c1c[nH]c2ccc(S(=O)(=O)Nc3ccc(F)cc3F)cc2c1=O`, which “activity change, positive = activation” value is on record?
Its value is inactive: -36.4%.

Which “activity change, positive = activation” value does the source give for `CCCCNc1nc2c(S(=O)(=O)c3ccc(Cl)cc3)nnn2c2ccsc12` here?
The value was inactive: -36.8%.

With `Cc1nn(-c2ccccc2)c2c1N(CCCC(=O)NCc1ccc(Cl)cc1)C(=O)CS2` as the molecule, how does the “activity change, positive = activation” value read?
The value was inactive: 0.849%.

For `COc1cccc(CNC(=O)c2ccc3c(c2)N(Cc2ccc(C(F)(F)F)cc2)C(=O)c2ccccc2S3)c1OC`, which “activity change, positive = activation” value is on record?
Its value is inactive: -29.4%.

For `CN1CCN(C(=O)c2cnn(-c3cccc(Cl)c3)c2C2CCN(C(=O)OC(C)(C)C)CC2)CC1`, which “activity change, positive = activation” value is on record?
Its value is inactive: -6.29%.

With `Cc1ccc(CN(Cc2ccco2)C(=O)COc2ccc(Cl)cc2Cl)cc1` as the molecule, how does the “activity change, positive = activation” value read?
The value was inactive: -37.2%.

Which “activity change, positive = activation” value does the source give for `COc1ccc(-c2nnc(SCC(=O)NCc3ccccc3)nc2-c2ccc(OC)c(OC)c2)cc1OC` here?
Its value is inactive: -40.7%.

Which “activity change, positive = activation” value does the source give for `CCOc1ccccc1CNC(=O)CN(c1ccc(C)cc1)S(=O)(=O)N(C)C` here?
Its value is inactive: -12.4%.

For `CC(C)(C)c1ccc(S(=O)(=O)c2cnc(SCC(=O)Nc3ccc(F)c(Cl)c3)[nH]c2=O)cc1`, which “activity change, positive = activation” value is on record?
The value was inactive: -9.78%.

Which “activity change, positive = activation” value does the source give for `CCOc1ccc(NC(=O)Cc2ccc(NC(=O)N3CCCCc4ccccc43)cc2)cc1` here?
The value was inactive: -16.4%.

For `COC(=O)c1ccc([C@H]2Nc3ccc(S(=O)(=O)Nc4ccc(C)cc4)cc3[C@H]3C=CC[C@H]32)cc1`, which “activity change, positive = activation” value is on record?
Its value is inactive: -11.2%.

Which “activity change, positive = activation” value does the source give for `CCOC(=O)c1cc(-c2ccc(F)cc2)n(CC(=O)NCc2ccc(OC)cc2)c1C` here?
Its value is inactive: -27.4%.

With `Cc1c(NC(C)C)c(=O)n(-c2ccccc2)n1C` as the molecule, how does the “activity change, positive = activation” value read?
The value was inactive: 3.52%.

With `CCN(CCCNC(=O)CSc1cc(=O)n(C)c2cc(Cl)ccc12)c1cccc(C)c1` as the molecule, how does the “activity change, positive = activation” value read?
The value was inactive: 0%.

For `Cc1c2cnn(-c3ccccc3)c(=O)c2c(C)n1CC(=O)N1CCN(c2ccc(F)cc2)CC1`, which “activity change, positive = activation” value is on record?
The value was inactive: -34.2%.

For `COc1cc(-c2noc(-c3ccc(N4CCOCC4)c([N+](=O)[O-])c3)n2)cc(OC)c1OC`, which “activity change, positive = activation” value is on record?
Its value is inactive: -2.93%.

For `Cc1ccc(NC(=O)CSc2nc3ccccc3c3nc(CCn4cncc4C)nn23)c(C)c1`, which “activity change, positive = activation” value is on record?
The value was inactive: 3.53%.

With `Cc1ccc(OCC(=O)N(Cc2ccco2)Cc2ccco2)cc1` as the molecule, how does the “activity change, positive = activation” value read?
Its value is inactive: -12.3%.

Which “activity change, positive = activation” value does the source give for `Oc1c(C(c2ccc(Br)cc2)N2CCOCC2)sc2nc(-c3ccco3)nn12` (centres undefined) here?
Its value is inactive: -10.6%.

Which “activity change, positive = activation” value does the source give for `CCc1ccc(C(=O)c2c(N)c(-c3nc(-c4ccc5c(c4)OCO5)cs3)c3ccccn23)cc1` here?
Its value is inactive: 2.2%.

For `COc1ccc2nc3sc(C(=O)N4CCN(c5ccccc5)CC4)cc3cc2c1`, which “activity change, positive = activation” value is on record?
Its value is inactive: 1.24%.

With `COc1ccc(CCNC(=O)CCn2c(=O)c3ccccc3n(Cc3c(C)cc(C)cc3C)c2=O)cc1OC` as the molecule, how does the “activity change, positive = activation” value read?
Its value is inactive: -12.7%.

With `Cc1ccc(C(N)=O)cc1Nc1nccc(-c2cn(C(C)C)c3cnccc23)n1` as the molecule, how does the “activity change, positive = activation” value read?
Its value is inactive: -29.9%.

For `Nc1nc(N)c(-c2ccccc2)s1`, which “activity change, positive = activation” value is on record?
Its value is inactive: -5.62%.

For `COc1ccc(OC)c(NC(=O)Cn2ccn(-c3ccc(F)cc3)c(=O)c2=O)c1`, which “activity change, positive = activation” value is on record?
Its value is inactive: -9.19%.

With `COc1ccc(-c2nc(SCC(=O)NCC3CCCO3)c(-c3ccc(Cl)cc3)[nH]2)cc1` (centres undefined) as the molecule, how does the “activity change, positive = activation” value read?
The value was inactive: -24%.

With `Cc1c(Cl)ccc2sc(NC(=O)c3ccc(S(=O)(=O)N4CCCC4)cc3)nc12` as the molecule, how does the “activity change, positive = activation” value read?
Its value is inactive: -11%.

Which “activity change, positive = activation” value does the source give for `CCCNC(=O)CCn1nc(-c2ccc(C)cc2)c2ccccc2c1=O` here?
The value was inactive: -11.7%.

With `O=C(NCc1ccc2c(c1)CCN2C(=O)c1ccncc1)c1ccccc1Br` as the molecule, how does the “activity change, positive = activation” value read?
Its value is inactive: -25%.

For `Cc1ccc2ncc(C(=O)Nc3cccc(C(F)(F)F)c3)c(=O)n2c1`, which “activity change, positive = activation” value is on record?
The value was inactive: -9.78%.

Which “activity change, positive = activation” value does the source give for `COc1cc(C(=O)Nc2cccc(OCc3cc(=O)n4c(C)csc4n3)c2)cc(OC)c1OC` here?
The value was inactive: 9.85%.

Which “activity change, positive = activation” value does the source give for `COc1cccc(-n2cc(C(=O)Oc3ccc(F)cc3)c3ccccc3c2=O)c1` here?
Its value is inactive: -25.8%.

For `Cc1nn2c(=O)cc(COC(=O)c3ccccc3NC(=O)C(C)C)nc2s1`, which “activity change, positive = activation” value is on record?
The value was inactive: -4.72%.

For `COc1ccc(S(=O)(=O)N2CCC(c3nnc(-c4ccccc4C)o3)CC2)c(OC)c1`, which “activity change, positive = activation” value is on record?
The value was inactive: -30.8%.

For `Cc1noc2ncnc(N3CCCC(C(=O)NCCC(C)C)C3)c12` (centres undefined), which “activity change, positive = activation” value is on record?
The value was inactive: -29%.

For `O=C(C=Cc1ccc(/C=C/C(=O)Nc2ccc(C3=NCCN3)cc2)cc1)Nc1ccc(C2=NCCN2)cc1`, which “activity change, positive = activation” value is on record?
The value was inactive: -21.7%.

For `Cc1ccc(S(=O)(=O)c2c(Nc3ccccc3)sc(C(=O)c3ccc4c(c3)OCO4)c2N)cc1`, which “activity change, positive = activation” value is on record?
Its value is inactive: -24.7%.
